In all, about 150,000 compounds went through this assay and about 540 (0.36%) showed an effect of 50% or more. The list shows a part of the results.
These compounds were tested on Plasmodium falciparum (assay: Primary screen in NF54 nanoGlo assay, in single point, at 2uM, 72h; a lower Z score goes with more inhibition). Conditions: timepoint 72 hour.
Assay type: functional, Erythrocyte

Compound	% Inhibition [%]	Z score
O=C(NCc1cc(O)ncn1)c1cc(COc2ccc(F)cc2F)[nH]n1	-3	0.36
CCS(=O)(=O)N1CCC([C@H](C)N(C)c2nccs2)CC1	-1	0.13
Cn1cncc1CN1CCC(CNC(=O)C2CCC2)CC1	-11	1.61
COC[C@@H]1C[C@@H](OC)CN1c1ccnc2ncccc12	9	-1.43
CC1(C)[C@H](Cc2cc(CCO)on2)C[C@@H]1NCc1ccco1	-9	1.12
COCCCN=C(NCc1ccccc1OCCOC)NC1CC1	-16	1.63
COc1ccc(CC(=O)N2CC3(C[C@H](N4CCN(C)CC4)CO3)C2)cc1	-7	1.04
CN(CC1CC1)c1ccc(S(=O)(=O)N(C)C)cc1S(N)(=O)=O	-16	1.65
CCn1ncc(Cl)c1C(=O)NC1(c2ccccc2F)COC1	2	-0.26
CC1(C)CCC[C@@H]1NC(=O)NCc1cccc(-c2nnc[nH]2)c1	-1	0.09
COc1ccc(Cn2c(CN3CCN(C)CC3)n[nH]c2=O)cc1	-14	1.43
COCC1(CNC(=O)Cc2c(C)nc3ccccn23)CCCC1	-13	2.12
CC(C)(C)c1nc(COc2ccc3c(c2)OCO3)cs1	-5	0.82
CC(=O)Nc1cnc(N2CCCCCC2)nc1	-20	1.79
Cc1cnc(C2CC2)n1CCC1CCN(C(=O)c2ccc3[nH]ccc3c2)CC1	-1	0.15
CC(C)n1nnnc1CN1CCC[C@H]1C=Cc1ccccc1	-11	2.07
c1ccc(Cn2c(COc3ccc4ccccc4c3)nc3ccccc32)cc1	0	0.03
Cc1ncsc1CCC(=O)N1CCC(c2cccc(O)c2)CC1	-2	0.42
Cc1ccccc1OCC(=O)N(Cc1cccs1)C1CCOCC1	0	0.04
CN(C)c1ncc(CN[C@H](c2cccc(Cl)c2)C(F)F)cn1	5	-0.78
CCc1nnc(CN(C)C(=O)c2ccc(-c3c(C)[nH]c(=O)[nH]c3=O)cc2)o1	-11	1.13
C[C@H]1CCCCN1C1CN(C(=O)c2c3c(nn2C)CCCC3)C1	-13	1.38
Cc1cccc(N2CCN(C(=O)NC3CC3)CC2)c1C	1	-0.2
Cn1nc([C@@H]2CCCCN2C(=O)Nc2ccccc2Cl)c2c1CCOC2	-10	0.97
